Measured values taken from publication PMC9917443 (eLife, 2023).

Molecular target: GB1a/2 receptors (Homo sapiens, UniProt O75899+Q9UBS5)
Test: SRE-luciferase accumulation assay (Gαqi/PLC) in HEK293T-Gαqi cells
Details: GB1a/2 + APP, different curve for each data set; for LogEC50 of GABA in presence of peptide: X = Log [GABA] (M)

Sequence of GB1a/2 receptors (Q9UBS5 15-961 limits assumed): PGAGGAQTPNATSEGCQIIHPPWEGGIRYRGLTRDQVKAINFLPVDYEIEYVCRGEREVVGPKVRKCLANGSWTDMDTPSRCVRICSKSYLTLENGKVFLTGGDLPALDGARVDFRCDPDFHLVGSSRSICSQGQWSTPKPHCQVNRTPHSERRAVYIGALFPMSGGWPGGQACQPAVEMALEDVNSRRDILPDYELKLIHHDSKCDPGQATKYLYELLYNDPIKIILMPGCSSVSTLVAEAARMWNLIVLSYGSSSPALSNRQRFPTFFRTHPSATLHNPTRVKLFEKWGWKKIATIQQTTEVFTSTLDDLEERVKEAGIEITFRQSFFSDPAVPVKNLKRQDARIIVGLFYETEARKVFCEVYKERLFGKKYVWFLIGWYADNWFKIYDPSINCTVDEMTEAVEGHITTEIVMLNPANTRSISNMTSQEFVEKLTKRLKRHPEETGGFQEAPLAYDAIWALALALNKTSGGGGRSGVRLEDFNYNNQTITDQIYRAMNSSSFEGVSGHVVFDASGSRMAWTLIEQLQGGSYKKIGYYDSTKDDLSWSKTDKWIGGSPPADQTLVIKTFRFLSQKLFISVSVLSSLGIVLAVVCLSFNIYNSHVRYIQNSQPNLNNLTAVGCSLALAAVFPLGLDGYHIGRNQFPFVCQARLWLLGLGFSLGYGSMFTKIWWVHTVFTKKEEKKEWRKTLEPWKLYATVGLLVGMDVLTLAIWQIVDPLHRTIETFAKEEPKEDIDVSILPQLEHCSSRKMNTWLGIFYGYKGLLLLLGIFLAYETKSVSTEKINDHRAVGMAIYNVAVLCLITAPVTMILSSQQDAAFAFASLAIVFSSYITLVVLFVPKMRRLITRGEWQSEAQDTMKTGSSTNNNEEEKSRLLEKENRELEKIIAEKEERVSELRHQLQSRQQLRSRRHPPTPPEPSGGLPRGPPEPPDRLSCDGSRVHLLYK
Sequence of GB1a/2 receptors (O75899 42-941 partner): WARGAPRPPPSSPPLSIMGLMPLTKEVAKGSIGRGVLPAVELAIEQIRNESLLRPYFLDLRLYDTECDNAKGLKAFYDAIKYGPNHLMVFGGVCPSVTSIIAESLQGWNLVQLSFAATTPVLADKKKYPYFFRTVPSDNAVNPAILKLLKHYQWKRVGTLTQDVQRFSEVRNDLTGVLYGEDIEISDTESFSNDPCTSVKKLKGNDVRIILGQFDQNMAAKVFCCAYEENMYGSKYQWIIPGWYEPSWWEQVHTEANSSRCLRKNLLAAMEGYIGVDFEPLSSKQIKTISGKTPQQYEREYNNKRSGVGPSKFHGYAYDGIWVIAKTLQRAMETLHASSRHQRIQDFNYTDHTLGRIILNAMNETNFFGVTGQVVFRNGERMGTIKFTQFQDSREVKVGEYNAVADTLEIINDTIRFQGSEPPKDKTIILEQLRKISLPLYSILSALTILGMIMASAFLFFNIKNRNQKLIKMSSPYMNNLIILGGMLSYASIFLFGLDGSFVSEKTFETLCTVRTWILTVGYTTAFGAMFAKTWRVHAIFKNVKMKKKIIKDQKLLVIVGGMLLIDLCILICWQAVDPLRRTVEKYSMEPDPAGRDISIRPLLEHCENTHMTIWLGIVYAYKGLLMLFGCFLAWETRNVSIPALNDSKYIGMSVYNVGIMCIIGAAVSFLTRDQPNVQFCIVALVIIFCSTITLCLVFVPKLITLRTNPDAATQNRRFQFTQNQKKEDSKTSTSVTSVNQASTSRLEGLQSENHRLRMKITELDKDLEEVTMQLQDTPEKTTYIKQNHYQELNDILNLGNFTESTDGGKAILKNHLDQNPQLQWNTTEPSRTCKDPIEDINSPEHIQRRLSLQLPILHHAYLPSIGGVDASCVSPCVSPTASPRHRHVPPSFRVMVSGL

Substance: Ac-DDSDVWWGGADTDYADG-NH2 [APP17]
- LogEC50 of GABA in presence of peptide (1μM peptide): -6.504
- Top of GABA dose-response curve in presence of peptide (1μM peptide): 0.9903
- LogEC50 of GABA in presence of peptide (10μM peptide): -6.467
